Measurements published in PubChem BioAssay AID662 (National Center for Advancing Translational Sciences (NCATS), 2007).
About 1,800 (2.5%) of roughly 71,000 compounds were called active. The shares of active, inactive and inconclusive entries below differ from those in the screen. The call rests on the fitted dose curve; in most records, active means well fitted activation curve with a large enough effect in the signal ratio, with a control signal flat (not every such curve was filed as active); inconclusive means small, poorly fitted or top-dose-only effect, or effect the other way, or a change in a side signal; inactive means flat fitted curve, though single readings scatter; the % refers to the signal ratio. Potencies beside an inconclusive call are fits to weak or partial responses and may not hold up.

Assay: Cell signaling CRE-BLA (Fsk stim); on activity change, negative = inhibition: % of control where 0% means no effect
Details: CHO CRE-bla reporter (cAMP response element driving beta-lactamase), forskolin EC10, beta-lactamase ratio; activity change, negative = inhibition: at 38.2 µM (top of the series) unless noted
Summary of the method: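 CRE-bla CHO reporter cells treated with compound titration plus EC10 NKH 477 (water-soluble forskolin), incubated 3 h at 37 °C; CCF4 loading 2 h at room temperature, 460/530 nm emission ratio read, AC50 values derived for positive or negative modulators.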
Potency means the concentration at half of the fitted maximal effect; tags describe the fitted curve by direction and shape.

Row | Structure (SMILES) | Potency | activity change, negative = inhibition
1 | COc1ccc(-c2ccc(SCC(=O)Nc3cc(C)on3)nn2)cc1OC | inconclusive: 12.6 µM [rising, partial curve] | 
2 | COc1cccc(Nc2ncc3nc(-c4cccs4)c(=O)n(Cc4cccs4)c3n2)c1 |  | inconclusive: 13.9% [fluorescent]
3 | O=C(NCCC1=CCCCC1)C1CCN(Cc2cnn(-c3ccccc3)c2-n2cccc2)CC1 | inconclusive: 12.6 µM [falling, partial curve] | 
4 | CCC(Sc1nncn1C)C(=O)Nc1nnc(-c2ccccc2Cl)s1 (centres undefined) | inconclusive: 12.6 µM [rising, partial curve] | 
5 | COc1cccc(C(=O)Nc2ncc3c(n2)CC(c2ccc(OC)cc2OC)CC3=O)c1 (centres undefined) | inconclusive: 12.6 µM [rising, partial curve] | 
6 | Cn1ccc(C(=O)OCC(=O)c2ccccc2)n1 |  | inconclusive: 9.56% [at 7.6 µM]
7 | CCN(CC)CCCCn1c(-c2ccccc2)nc2c(N3CCOCC3)nc(C)nc21 |  | inactive: 2.26%
8 | COC(=O)c1nc(NC(=O)C(C)(C)C)n[nH]1 |  | inconclusive: -24.8%
9 | CN(C)c1ccc(NC(=O)c2ccc(COc3cccc(Cl)c3)o2)cc1 |  | inactive: -21.2%
10 | COc1cc(NC(=O)C2CCCCC2)c(OC)cc1NC(=O)CCC(=O)NCc1ccco1 |  | inactive: -5.75%
11 | COc1cc(OC)cc(C(=O)Nc2ccccc2N2CCOCC2)c1 | inconclusive: 10 µM [rising, partial curve] | 
12 | COc1ccc(CCNC(=O)c2nn(C)cc2Cl)cc1 |  | inactive: -9.17%
13 | COc1cccc(-n2nnnc2SCC(=O)Nc2cccc(NC(C)=O)c2)c1 |  | inconclusive: -2.49%
14 | c1ccc(-n2ncc3c(NCc4ccccn4)ncnc32)cc1 | inconclusive: 12.6 µM [rising, single point] | 
15 | COc1cc(SC)ccc1C(=O)Nc1ccc2c(c1)OCCO2 |  | inactive: 17.1%
16 | CCCCCCCCCCCCCCCC(=O)NC[C@@H](COP(=O)([O-])OCC[N+](C)(C)C)OCC |  | inconclusive: -21.5%
17 | CCN(CC)S(=O)(=O)c1ccc(NC2CCCc3ccccc32)nc1 (centres undefined) |  | inactive: 2.52%
18 | COc1cccc(C2=NOC(C(=O)NCC3CCCO3)C2)c1 (centres undefined) |  | inconclusive: 11.2%
19 | Cc1nnc(SCc2ccc(Cl)cc2)n1CC1CCCO1 (centres undefined) |  | inconclusive: 2.67%
20 | N#Cc1c(-c2ccccc2)cc(C2CC2)nc1N | active: 2 µM | 
21 | COc1cccc(Cn2c(N)c(C#N)c3nc4ccccc4nc32)c1OC | active: 5.01 µM | 

Row | Structure (SMILES) | Potency | activity change, negative = inhibition
22 | COc1ccc(Cl)c(Cn2c(NCCCO)nc3c2c(=O)n(C)c(=O)n3C)c1 | inconclusive: 10 µM [rising, single point] | 
23 | C=C(CC)C(=O)c1ccc(OCC(=O)O)c(Cl)c1Cl | inconclusive: 20 µM [falling, partial curve] | inconclusive: -14.3% [at 17.1 µM]
24 | COC(=O)c1cc(OC)c(OC)cc1NC(=O)CCCCCN1C(=O)CCC1=O | inconclusive: 15.8 µM [rising, single point] | 
25 | Cc1nc2cc(-n3ccc(=O)cc3)ccc2n1-c1ccccc1 |  | inconclusive: -4.25%
26 | COc1ccc(C(=O)C(CO)Oc2ccccc2OC)cc1OC (centres undefined) |  | inactive: 11.2%
27 | CCOC(=O)c1[nH]c(Cc2[nH]c(C(=O)OCC)c(C)c2CCC(=O)OC)c(CCC(=O)OC)c1C | inconclusive: 3.16 µM [rising, single point] | 
28 | Cc1cc2ccccn2c1C(=O)c1ccncc1 | inconclusive: 3.16 µM [falling, single point] | 
29 | CC1CN(c2nc3ccccc3nc2C(C#N)C(=O)OC2CCCCC2)CC(C)O1 (centres undefined) |  | inconclusive: 12.3%
30 | COC(=O)CCCCC1SCC(NC(=O)OC)C1NC(=O)OC (centres undefined) |  | inconclusive: -4.19%
31 | O=C(NCc1cccs1)c1cc2c(s1)CS(=O)(=O)C2 |  | inactive: 4.09%
32 | CCCC(c1nnnn1CCc1ccccc1)N1CCN(C2CCCC2)CC1 (centres undefined) |  | inactive: -4.42%
33 | Cc1ccn2cc(CCNC(=O)CC(C)(C)C)nc2c1 |  | inactive: 11.9%
34 | O=C(c1cn(-c2ccccc2)nc1-c1ccc(Cl)s1)N1CCOCC1 |  | inactive: -12.9%
35 | O=C(NCc1ccco1)c1cnn2c(C(F)(F)F)cc(-c3cccs3)nc12 | active: 10 µM | 
36 | CNCCNS(=O)(=O)c1cccc2cnccc12 |  | inconclusive: -21.6%
37 | CCN1CCN(Cc2ccccc2NC(=O)Nc2ccc(C)cc2)CC1 |  | inactive: 11.3%
38 | O=P(O)(CCCCP(=O)(O)CCc1ccccc1)CCc1ccccc1 |  | inconclusive: -8.22%
39 | CC1CC(C)CN(CC(=O)N2CCc3[nH]c4ccccc4c3C2)C1 (centres undefined) |  | inactive: -16.8%
40 | c1ccc2c(Nc3ccncc3)nc(-c3ccoc3)nc2c1 | inconclusive: 20 µM [rising, single point] | 
41 | O=C(NCCN1CCOCC1)NC1(C(F)(F)F)Oc2ccc(Cl)cc2O1 (centres undefined) |  | inconclusive: -21.8%
42 | O=C(NCc1nnc(SCC(=O)N2CCC(Cc3ccccc3)CC2)o1)c1ccccc1F |  | inactive: -3.47%

Row | Structure (SMILES) | Potency | activity change, negative = inhibition
43 | NC(=O)C1CCN(CC(=O)c2c[nH]c3ccc(F)cc23)CC1 |  | inconclusive: 3.29%
44 | CCc1nc(C)cn1S(=O)(=O)c1ccc(Cl)c(Cl)c1Cl |  | inactive: 5.46%
45 | CC1(C)CC(=O)C2=C(C1)NC(=O)CC2c1cc2c(cc1Br)OCO2 (centres undefined) |  | inactive: -10.9%
46 | CS(=O)(=O)N1CCC2(CCCN(c3ncccn3)C2)CC1 |  | inactive: -0.717%
47 | O=c1ccc2cc3c([nH]c4ccc(Br)cc43)oc-2c1O |  | inconclusive: -7.43%
48 | CCn1c(C)nc2cc(S(=O)(=O)N3CCCCC3)ccc21 |  | inactive: 3.25%
49 | COc1ccc(-n2cnc3c(sc4nccc(N(C)C)c43)c2=O)cc1 |  | inconclusive: -13.2%
50 | CC(=O)Nc1nc(C)nc(-c2ccccc2OC(C)=O)n1 | inconclusive: 7.94 µM [rising, single point] | 
51 | CCCC(=O)NCc1nc2ccccc2n1C |  | inactive: -19%
52 | Cc1cccc(-n2c(Cc3cc(=O)[nH]c(=O)[nH]3)nnc2SCC(=O)NCc2ccco2)c1 |  | inconclusive: 22%
53 | COc1ccc(NC(=O)N2CCC3(CC2)CCN(C(=O)c2csnn2)CC3)cc1 |  | inactive: -1.48%
54 | O=C(NCc1ccc2c(c1)OCO2)c1cccc(S(=O)(=O)N2CCCCC2)c1 | inconclusive: 6.31 µM [falling, partial curve] | 
55 | COc1ccc(-c2nc3c(n2O)CCCC3=O)cc1OC |  | inactive: -4.4%
56 | Cc1ccc(C2C3CSCC=C3C(C#N)=C(N)C2(C#N)C#N)cc1 (centres undefined) |  | inconclusive: -7.6%
57 | Cc1cc(NC(=O)C2CC(=O)OC2c2ccccc2)no1 (centres undefined) |  | inconclusive: -13.2%
58 | CCn1c(=O)cc(SCC(=O)Nc2ccccc2N2CCN(C)CC2)c2ccccc21 | inconclusive: 3.98 µM [rising, partial curve, poor fit] | 
59 | O=S(=O)(c1ccc(Oc2ccc(S(=O)(=O)N3CCOCC3)cc2)cc1)N1CCOCC1 | inconclusive: 0.794 µM [falling, full curve, poor fit] | 
60 | CCOC(=O)c1ccccc1NC(=O)C(C)Oc1ccccc1 (centres undefined) | inconclusive: 10 µM [rising, partial curve] | 
61 | Clc1ccc(OCc2cn3cccnc3n2)c2ncccc12 |  | inconclusive: 9.14%
62 | COc1ccc(OC)c(N=CC2=C(O)CC(C)(C)CC2=O)c1 | inconclusive: 12.6 µM [rising, single point] | 
63 | Cc1nc2c(-c3ccc(F)cc3)c(C)nn2c(C)c1CCC(=O)NC(C)CCc1ccco1 (centres undefined) |  | inconclusive: -23.3%

Row | Structure (SMILES) | Potency | activity change, negative = inhibition
64 | CCC(C)(C)C(=O)O |  | inactive: -13.8%
65 | O=C(Nc1ccc2nc(-c3ccco3)[nH]c2c1)c1ccco1 | inconclusive: 12.6 µM [rising, partial curve] | 
66 | O=C1NC(Nc2nccs2)(C(F)(F)F)C(=O)N1CCc1ccccc1 (centres undefined) |  | inconclusive: 2.34%
67 | COc1ccc(Nc2nc(C)cc(C)c2C#N)cc1OC | inconclusive: 12.6 µM [rising, partial curve] | 
68 | Cn1nnnc1SCC(=O)Nc1ccccc1Cc1ccccc1 |  | inactive: -0.0262%
69 | CS(=O)(=O)Nc1cccc(-c2nc(NCCN3CCOCC3)c3ccccc3n2)c1 | inconclusive: 12.6 µM [rising, single point] | 
70 | Cc1cccc(-c2nnc(N)s2)c1 |  | inactive: 1.09%
71 | Nc1nc(SCC(=O)O)[nH]c(=O)c1N |  | inactive: -2.16% [at 7.6 µM]
72 | CCCN(CCC)CCNC(=O)C(NS(=O)(=O)c1ccc2c(c1)CCC(=O)N2)c1ccccc1 (centres undefined) |  | inconclusive: -3.54%
73 | CCC1CCCN1Cn1cnc2c([nH]c3ccccc32)c1=O (centres undefined) |  | inactive: -1.62%
74 | CC(=O)C1(O)C(C)CC2C3CCC4CC(O)CCC4(C)C3=CCC21C (centres undefined) |  | inactive: 11.4%
75 | O=C(CN1CCN(c2ccccc2F)CC1)c1ccc2cc[nH]c2c1 | inconclusive: 7.94 µM [falling, partial curve] | 
76 | NC(=O)C1=CN([C@@H]2O[C@@H](COP(=O)(O)OP(=O)(O)OC[C@@H]3O[C@H](n4cnc5c(N)ncnc54)[C@@H](OP(=O)(O)O)[C@@H]3O)[C@H](O)[C@@H]2O)C=CC1 | inconclusive: 12.6 µM [falling, single point] | 
77 | COc1ccc(-c2nc3ccccc3c(=O)n2CCCN2CCOCC2)cc1 | inconclusive: 25.1 µM [rising, single point] | 
78 | CCOC(=O)c1c(C)c(C(=O)NCc2ccccc2OC)c(C)n1C | inconclusive: 12.6 µM [rising, partial curve] | 
79 | CCc1cc(C(=O)OC)c(N2C(=O)C3C4C=CC(C4)C3C2=O)s1 (centres undefined) |  | inactive: 0.714%
80 | Cc1cc(C)cc(NC(=O)C2CCCN(c3nc(C)cc(C)n3)C2)c1 (centres undefined) |  | inactive: -0.282%
81 | CCOC(=O)c1sc(N(Cc2ccccc2)C(=O)CN2C(=O)CN(C)C2=O)nc1C | inconclusive: 10 µM [rising, single point] | 
82 | C=CCOc1cccc(C2/C(=C(/O)c3ccc(Cl)cc3)C(=O)C(=O)N2CCN2CCOCC2)c1 (centres undefined) |  | inactive: -16.2%
83 | CCCn1nc(-c2nnc(-c3ccc(C)c(C)c3)o2)c2ccccc2c1=O | inconclusive: 5.01 µM [falling, single point] | 
